The source of these data is PMC11312940.

Protein sequences, listed by entry. Tags and fused reporters are not part of them.
UniProt P46937: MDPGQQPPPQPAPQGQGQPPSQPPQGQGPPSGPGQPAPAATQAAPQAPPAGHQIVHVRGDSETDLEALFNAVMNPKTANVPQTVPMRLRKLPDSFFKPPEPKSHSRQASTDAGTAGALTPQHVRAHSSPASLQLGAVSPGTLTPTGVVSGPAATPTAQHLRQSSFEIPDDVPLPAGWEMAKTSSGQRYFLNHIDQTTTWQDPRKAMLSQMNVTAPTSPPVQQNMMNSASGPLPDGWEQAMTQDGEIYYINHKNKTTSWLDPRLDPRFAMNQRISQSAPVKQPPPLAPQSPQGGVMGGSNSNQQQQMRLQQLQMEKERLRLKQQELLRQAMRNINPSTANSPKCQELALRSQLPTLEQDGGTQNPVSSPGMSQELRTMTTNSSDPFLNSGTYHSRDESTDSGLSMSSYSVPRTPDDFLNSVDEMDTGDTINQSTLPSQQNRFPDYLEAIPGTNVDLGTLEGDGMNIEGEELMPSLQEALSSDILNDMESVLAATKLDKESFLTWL
UniProt Q9GZV5: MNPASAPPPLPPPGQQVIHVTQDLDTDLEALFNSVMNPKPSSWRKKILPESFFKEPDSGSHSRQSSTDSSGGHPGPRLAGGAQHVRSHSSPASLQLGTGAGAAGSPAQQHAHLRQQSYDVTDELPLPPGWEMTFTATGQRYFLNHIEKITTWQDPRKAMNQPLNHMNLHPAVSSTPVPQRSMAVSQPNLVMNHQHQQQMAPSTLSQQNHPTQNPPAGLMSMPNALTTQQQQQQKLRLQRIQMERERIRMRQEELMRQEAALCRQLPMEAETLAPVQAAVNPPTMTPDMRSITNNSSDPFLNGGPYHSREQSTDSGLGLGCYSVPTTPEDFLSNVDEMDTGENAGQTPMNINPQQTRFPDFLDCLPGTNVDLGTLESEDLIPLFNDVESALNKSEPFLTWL
UniProt P46109: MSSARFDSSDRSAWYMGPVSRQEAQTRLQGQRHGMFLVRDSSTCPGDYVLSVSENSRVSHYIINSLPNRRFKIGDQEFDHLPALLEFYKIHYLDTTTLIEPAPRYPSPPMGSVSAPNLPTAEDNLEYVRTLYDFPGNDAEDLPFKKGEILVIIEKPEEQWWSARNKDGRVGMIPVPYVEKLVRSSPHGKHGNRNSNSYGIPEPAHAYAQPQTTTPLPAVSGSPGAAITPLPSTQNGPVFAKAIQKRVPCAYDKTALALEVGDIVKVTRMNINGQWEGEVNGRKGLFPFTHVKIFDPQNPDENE
UniProt P46108: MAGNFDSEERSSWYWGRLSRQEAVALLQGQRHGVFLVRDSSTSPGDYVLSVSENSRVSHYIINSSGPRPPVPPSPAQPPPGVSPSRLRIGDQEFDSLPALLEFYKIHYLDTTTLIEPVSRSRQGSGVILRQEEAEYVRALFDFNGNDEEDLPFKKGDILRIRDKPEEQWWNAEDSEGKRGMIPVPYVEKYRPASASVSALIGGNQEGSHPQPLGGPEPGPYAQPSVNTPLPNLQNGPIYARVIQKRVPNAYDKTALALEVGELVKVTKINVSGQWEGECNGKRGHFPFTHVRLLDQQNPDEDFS
UniProt Q70E73: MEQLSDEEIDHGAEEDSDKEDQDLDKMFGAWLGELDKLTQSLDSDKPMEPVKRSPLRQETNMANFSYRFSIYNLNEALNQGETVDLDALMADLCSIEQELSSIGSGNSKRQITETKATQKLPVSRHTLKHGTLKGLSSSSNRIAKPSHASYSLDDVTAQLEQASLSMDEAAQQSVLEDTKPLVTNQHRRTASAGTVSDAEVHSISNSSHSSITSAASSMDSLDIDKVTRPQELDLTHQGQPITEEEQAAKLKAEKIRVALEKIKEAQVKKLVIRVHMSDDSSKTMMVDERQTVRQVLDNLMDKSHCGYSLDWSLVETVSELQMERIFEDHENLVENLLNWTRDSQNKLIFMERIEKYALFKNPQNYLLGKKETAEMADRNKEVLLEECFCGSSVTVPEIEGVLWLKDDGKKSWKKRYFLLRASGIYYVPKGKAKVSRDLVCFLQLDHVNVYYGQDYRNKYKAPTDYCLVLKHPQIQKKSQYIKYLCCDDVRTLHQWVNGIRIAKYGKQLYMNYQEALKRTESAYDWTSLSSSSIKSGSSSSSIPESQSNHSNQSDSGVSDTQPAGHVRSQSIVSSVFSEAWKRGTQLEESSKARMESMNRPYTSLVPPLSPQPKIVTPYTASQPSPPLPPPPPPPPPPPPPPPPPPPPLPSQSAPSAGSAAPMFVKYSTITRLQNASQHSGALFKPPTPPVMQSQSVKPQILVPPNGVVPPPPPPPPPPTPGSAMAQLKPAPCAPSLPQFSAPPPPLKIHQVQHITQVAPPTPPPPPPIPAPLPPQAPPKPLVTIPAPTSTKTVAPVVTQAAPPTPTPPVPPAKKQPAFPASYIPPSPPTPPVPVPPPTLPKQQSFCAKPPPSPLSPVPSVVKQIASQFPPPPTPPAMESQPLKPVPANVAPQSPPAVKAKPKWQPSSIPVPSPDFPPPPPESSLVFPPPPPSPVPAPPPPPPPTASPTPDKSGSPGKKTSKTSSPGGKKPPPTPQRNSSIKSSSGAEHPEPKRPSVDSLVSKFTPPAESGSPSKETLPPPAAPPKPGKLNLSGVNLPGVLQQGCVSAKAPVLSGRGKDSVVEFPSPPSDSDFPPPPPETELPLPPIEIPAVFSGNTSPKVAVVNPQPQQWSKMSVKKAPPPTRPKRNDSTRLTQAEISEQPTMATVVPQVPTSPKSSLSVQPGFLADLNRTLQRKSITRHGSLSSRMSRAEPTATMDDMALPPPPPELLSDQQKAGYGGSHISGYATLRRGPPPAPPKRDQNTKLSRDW
UniProt P50552: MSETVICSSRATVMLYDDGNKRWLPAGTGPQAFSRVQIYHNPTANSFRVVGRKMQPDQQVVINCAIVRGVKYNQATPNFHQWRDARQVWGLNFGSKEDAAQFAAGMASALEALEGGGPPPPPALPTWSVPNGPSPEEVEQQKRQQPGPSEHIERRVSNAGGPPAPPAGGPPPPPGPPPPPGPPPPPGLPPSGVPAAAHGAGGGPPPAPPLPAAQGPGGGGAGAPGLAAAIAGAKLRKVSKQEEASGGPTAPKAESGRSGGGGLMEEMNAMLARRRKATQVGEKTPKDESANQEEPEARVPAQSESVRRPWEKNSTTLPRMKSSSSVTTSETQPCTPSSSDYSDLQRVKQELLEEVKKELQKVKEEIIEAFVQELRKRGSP

These are yes or no findings as the source states them, for the method shown. Binding seen in cells or lysates may run through a third protein. Some results given as binding are weak or reduced against the parent protein; the word gives no strength.

The target in experiment [1] is yes-associated protein (YAP), endogenous (human (endogenous in HLF and SNU449)) (UniProt P46937). Nature of the experiment: proximity ligation; in situ PLA (Duolink) on fixed, permeabilised HLF cells; single primary antibody as negative control.
Experiment [2] deals with WW-domain containing transcription regulator 1 (WWTR1/TAZ), endogenous (human (endogenous in HLF)) (UniProt Q9GZV5). Described as above.
Experiment [3] concerns the target yes-associated protein (YAP), endogenous (human (endogenous in HLF and SNU449)) (UniProt P46937). Nature of the experiment: co-IP; endogenous YAP or endogenous CRKL precipitated from HLF cells; IgG as negative control; CoIP as in ref. 4.
For experiment [4] the target is unchanged. The experiment is described as follows: proximity ligation; in situ PLA (Duolink) on fixed SNU449 cells, DMSO control; YAP and CRKL antibody-only PLAs as negative control; quantified.
Experiment [5] has the same target. The experiment is described as follows: co-IP; Supplementary Figure S2A,B; cells, constructs and who was precipitated not shown; CoIP as in ref. 4.
Experiment [6] addresses WW-domain containing transcription regulator 1 (WWTR1/TAZ), endogenous (human (endogenous in HLF)) (UniProt Q9GZV5). The experiment is described as above.
The target of experiment [7] is CRK-like proto-oncogene adaptor protein (CRKL) (human (endogenous in HLF and SNU449)) (UniProt P46109). Nature of the experiment: co-IP; endogenous YAP or endogenous CRKL precipitated from HLF cells; IgG as negative control; CoIP as in ref. 4.

Consider “CRK (CT10 Regulator of Kinase) (from UniProt P46108 1-304)”, for which the binding result in experiment [1] is recorded as “binds”; in experiment [2], “binds weakly”.

“CRK-like proto-oncogene adaptor protein (CRKL) (from UniProt P46109 1-303)”: the binding result in experiment [3] is “binds”; in experiment [1] it was “binds”; in experiment [2], “no binding”; in experiment [4], “binds”.

In the case of “RAPH1 (Ras Association and Pleckstrin Homology domains 1) (from UniProt Q70E73 1-1250)”, the binding entry in experiment [5] is “binds”.

For “VASP (Vasodilator-stimulated phosphoprotein) (from UniProt P50552 1-380)”, the binding result in experiment [5] and in experiment [6] was “binds” each time.

For the substance “yes-associated protein (YAP), endogenous (from UniProt P46937 1-504)”, the binding result in experiment [7] is on record as “binds”.
